From article PMC6999911, “New 2-Ethylthio-4-methylaminoquinazoline derivatives inhibiting two subunits of cytochrome bc1 in Mycobacterium tuberculosis” (PLoS Pathogens, 2020)
≈ marks a conversion by molar mass, not a printed value.

Test system: M. tb strain H37Rv
Test: Resazurin microtiter assay (REMA), MIC
Details: for Change in the MIC with acetate as the sole carbon source: H37Rv grown in 7H9-based media containing acetate; for MIC: Mycobacterium tuberculosis, H37RV, Mycobacterium tuberculosis H37Rv (Table 1)

How did the “Change in the MIC with acetate as the sole carbon source” value (“Change in the MIC with acetate” for short) turn out when CCSc1nc(NC)c2ccccc2n1 [Compound 11626141] was run?
Its value is “no significant change”.

What about the MIC of the same compound?
Its MIC is 0.04 µg/mL (≈ 0.182 µM).

For CCNc1nc(SCC)nc2ccccc12 [Compound 11626142], which “Change in the MIC with acetate” value is on record?
Its value is “no significant change”.

What about the MIC of the same compound?
The MIC was 0.09 µg/mL (≈ 0.386 µM).

For CCSc1nc(NC)c2cccc(F)c2n1 [Compound 11626252], which “Change in the MIC with acetate” value is on record?
The value was “no significant change”.

What about the MIC of the same compound?
Its MIC is 0.02 µg/mL (≈ 0.0843 µM).

CCSc1nc(NC)c2cc(F)ccc2n1 [Compound 11626256] was tested. Which “H37Rv MIC” value (REMA, MIC99 referred to as MIC, in vitro) did it give?
The value was 0.04 µg/mL.

Which MIC does the source give for CO[C@H]1/C=C/O[C@@]2(C)Oc3c(C)c(O)c4c(O)c(c(/C=N/N5CCN(C)CC5)c(O)c4c3C2=O)NC(=O)/C(C)=C\C=C\[C@H](C)[C@H](O)[C@@H](C)[C@@H](O)[C@@H](C)[C@H](OC(C)=O)[C@@H]1C [RIF, rifampicin, reference compound] here?
Its MIC is 0.0008 µg/mL (≈ 0.000972 µM).
